Data published in PubChem BioAssay AID686970 (National Center for Advancing Translational Sciences (NCATS), 2013).
Out of some 360,000 compounds screened, about 6,000 (1.7%) were called active. This list was built around the results that the source calls inconclusive (neither active nor inactive); the mix of calls is not that of the screen. Calls follow the shape of the dose curve; as a rule, active = well fitted cell-killing curve with a large enough effect; inconclusive = small, poorly fitted or top-dose-only effect, or effect the other way; inactive = flat fitted curve, though single readings scatter. Potencies of inconclusive entries are left out as doubtful fits.

assay: qHTS for induction of synthetic lethality in tumor cells producing 2HG: qHTS for the HT-1080-NT fibrosarcoma cell line; settings: HT-1080-NT fibrosarcoma viability, CellTiter-Glo ATP luminescence, 48 h; activity, negative = less viability: at 46.1 µM (top of the series) unless noted;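 also: NT is the 2HG producing partner of a matched IDH1 knockdown line; nearly all actives have a fitted effect of over 55% in size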;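 as to activity, negative = less viability: 0% = DMSO-treated cells and -100% = media-only wells without cells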
How it was run: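 Toxicity toward the 2HG-producing NT line was scored as %Activity, normalised to DMSO and no-cell wells, from CellTiter-Glo luminescence after 48 hours' treatment.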
Potency is read from the fitted curve at half-maximal effect; tags tell the direction and shape of the fitted curve.

| Compound | Potency | activity, negative = less viability |
| --- | --- | --- |
| O=C(COc1ccc(-n2cnnn2)cc1)Nc1ccc(F)cc1 | inconclusive [rising, partial curve] |  |
| COc1cccc(C(=O)N/N=C(\C)CC(=O)Nc2ccc(N(C)C)cc2)c1 | inconclusive [cytotoxic, single point] |  |
| COc1ccc(CN(C(=S)Nc2ccccc2)C2CC(=O)N(c3ccc(F)cc3)C2=O)cc1 (stereo not drawn) | inconclusive [cytotoxic, single point] |  |
| Cn1cc(C(C[N+](=O)[O-])c2ccccc2)c2ccccc21 (stereo not drawn) | inconclusive [cytotoxic, single point] |  |
| Cc1ccc(C2SCC(=O)N2Cc2cn3ccsc3n2)o1 (stereo not drawn) |  | inconclusive: 38.8% |
| Cc1cccc(-c2c3c(=O)n(C)c(=O)n(C)c3cn2C2CCCCC2)c1 |  | inactive: -12.4% |
| C#CCOCCOCCOCCNc1nc(N2CCOCC2)nc(N2CCN(C(=O)CCCCCCCCCCNC(=O)[C@@H](CCC(=O)O)n3cc(CCCCCN)nn3)CC2)n1 |  | inactive: 8.11% |
| CCCCN(CCCC)CCNC(=O)CN1C(=O)CSc2ccc(S(=O)(=O)N3CCCCC3)cc21 | inconclusive [cytotoxic, single point] |  |
| COc1cc2c(cc1OC)C(C)N(C(=O)c1cc3c(s1)-c1ccccc1OC3)CC2 (stereo not drawn) | inconclusive [cytotoxic, single point] |  |
| COc1ccc(CN2CCC(C(=O)NC(c3ccc4c(c3)OCO4)c3ccccn3)CC2)cc1 (stereo not drawn) |  | inactive: 3.83% |
| NC(Cc1ccc(C(F)(F)F)cc1)c1csc(NC(=O)Nc2ccccc2Cl)n1 (stereo not drawn) | active: 14.6 µM |  |
| Cc1cc(O)c(C2=Nc3ccccc3SC(c3ccc(Cl)cc3)C2)c(=O)o1 (stereo not drawn) |  | inconclusive: 10.1% |
| CCc1cccc(C)c1N=Cc1c(O)c2ccccc2oc1=O | inconclusive [cytotoxic, partial curve] |  |
| NC(=O)c1cccc(-c2ccnc3c2CC(C(=O)NCc2ccco2)O3)c1 (stereo not drawn) | inconclusive [cytotoxic, partial curve] |  |
| CCCc1cc(=O)oc2cc(C)cc(OCC(=O)Nc3ccc(CN4CCOCC4)cc3)c12 | inconclusive [cytotoxic, partial curve] |  |
| CCOc1ccc(Cl)cc1-c1cc(C(=O)NC2CCCCC2)[nH]n1 | inconclusive [rising, full curve, poor fit] |  |
| Cc1ccc2cccc(NC(=O)c3ccc(Br)o3)c2n1 | inconclusive [cytotoxic, single point] |  |
| COc1ccc(N2C(=O)c3ccccc3NC23CCCCC3)cc1 | inconclusive [cytotoxic, single point] |  |
